According to PubChem BioAssay (Tox21):
Inconclusive means that the source gave no clear call. Such entries were picked first, then a sample of the others. Potencies of inconclusive entries are left out as doubtful fits. The source made the active and inactive calls. Calls come from the whole dose curve; as a rule, active = well fitted cell-killing curve with a large enough effect in the repeat runs; inconclusive = weak or mixed curves, or effect the other way; inactive = flat fitted curve, though single readings scatter.

Test: qHTS RealTime-Glo MT Cell Viability Assay in HEK293 cells - 24 hour (AID 1224886); for activity change, negative = cytotoxicity: top concentration of the series differs between compounds
Details: RealTime-Glo luminescence; series mostly up to 76.8 µM; activity change, negative = cytotoxicity: at the top concentration
Method in brief: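 Cells + reagent dispensed (600 cells/well, HEK293) → 5 h at 37 C/5% CO2 → 23 nL compound in DMSO pinned → 40 h at 37 C → luminescence read at 0, 8, 16, 24, 32, 40 h.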
% is set by controls: 0 for no effect and ±100 for the full control effect; potency is the fitted concentration of half-maximal effect; tags give direction and shape of the fitted curve.
Note: nearly all actives have a fitted effect of over 50% in size.

Question: Which Potency does the source give for `Clc1ccc(Cn2c(CN3CCCC3)nc3ccccc32)cc1` here?
Answer: The Potency was inconclusive [cytotoxic, single point].

Question: With `OCc1c2ccccc2cc2ccccc12` as the compound, how does the Potency read?
Answer: Its Potency is inconclusive [cytotoxic, single point].

Question: For `CCC(=O)O[C@]1(C(=O)COC)[C@@H](C)C[C@H]2[C@@H]3CCC4=CC(=O)C=C[C@]4(C)C3(F)[C@@H](O)C[C@@]21C` (some centres undefined), which “activity change, negative = cytotoxicity” value is on record?
Answer: Its value is inactive: -10.5% [at 35.3 µM].

Question: Which Potency does the source give for `C=CCSSCCC` here?
Answer: Its Potency is inconclusive [rising, single point].

Question: For `O=C(Cl)c1ccc(F)c(Cl)c1`, which Potency is on record?
Answer: The Potency was inconclusive [rising, single point].

Question: For `C=Cc1ccc(C)cc1`, which Potency is on record?
Answer: Its Potency is “inactive”.

Question: For `CC(=O)Oc1cc(C(C)C)c(OCCN(C)C)cc1C`, which Potency is on record?
Answer: The Potency was inconclusive [cytotoxic, partial curve].

Question: Which Potency does the source give for `COc1c(Cl)ccc(Cl)c1C(=O)O` here?
Answer: Its Potency is “inactive”.

Question: Which Potency does the source give for `COC(=O)C(C)(C)C` here?
Answer: The Potency was inconclusive [cytotoxic, single point].

Question: For `O=C(O)c1ccc(CO)o1`, which “activity change, negative = cytotoxicity” value is on record?
Answer: Its value is inactive: 0.807%.

Question: Which Potency does the source give for `Cc1nnc(C(=O)NC(C)(C)c2nc(C(=O)NCc3ccc(F)cc3)c(O)c(=O)n2C)o1` here?
Answer: The Potency was inconclusive [rising, partial curve, poor fit].

Question: For `CCCc1nn(C)c2c(=O)[nH]c(-c3cc(S(=O)(=O)N4CCN(C)CC4)ccc3OCC)nc12`, which Potency is on record?
Answer: Its Potency is inconclusive [cytotoxic, single point].

Question: For `CS(C)=O`, which Potency is on record?
Answer: Its Potency is inconclusive [rising, single point].

Question: For `CC(C)(C)Cl`, which “activity change, negative = cytotoxicity” value is on record?
Answer: Its value is inactive: 1.62%.

Question: Which Potency does the source give for `CC/C(=C\C(=N/O)C(N)=O)C(C)[N+](=O)[O-]` (centres undefined) here?
Answer: Its Potency is inconclusive [rising, partial curve, poor fit].

Question: With `OC[C@H]1O[C@@H](OCCc2ccc(O)cc2)[C@H](O)[C@@H](O)[C@@H]1O` as the compound, how does the “activity change, negative = cytotoxicity” value read?
Answer: The value was inactive: 9.81% [at 35.3 µM].

Question: Which “activity change, negative = cytotoxicity” value does the source give for `CCOC(=O)C(Br)c1ccccc1` (centres undefined) here?
Answer: The value was inactive: 18.3%.

Question: For `Nc1c(Br)cc([N+](=O)[O-])cc1Br`, which “activity change, negative = cytotoxicity” value is on record?
Answer: The value was inactive: -18.8%.

Question: Which Potency does the source give for `CC(=O)CC(=O)c1ccccc1` here?
Answer: The Potency was inconclusive [cytotoxic, partial curve].

Question: Which Potency does the source give for `O=[N+]([O-])c1ccc(/C=C/c2ccc([N+](=O)[O-])cc2S(=O)(=O)O)c(S(=O)(=O)O)c1` here?
Answer: Its Potency is inconclusive [rising, partial curve, poor fit].

Question: For `CCCCCCCCCCCCCCCC(=O)OC(C)C`, which Potency is on record?
Answer: Its Potency is “inactive”.

Question: Which Potency does the source give for `CCC(=O)O[C@]1(C(=O)CCl)[C@@H](C)C[C@H]2[C@@H]3CCC4=CC(=O)C=C[C@]4(C)[C@@]3(F)[C@@H](O)C[C@@]21C` here?
Answer: The Potency was inconclusive [cytotoxic, partial curve, poor fit].

Question: With `COC(=O)c1cc(Cl)ccc1NS(=O)(=O)C(F)(F)F` as the compound, how does the “activity change, negative = cytotoxicity” value read?
Answer: The value was inactive: 1.63% [at 35.3 µM].

Question: For `Cc1c(-c2ccccc2)oc2c(C(=O)OCCN3CCCCC3)cccc2c1=O`, which Potency is on record?
Answer: The Potency was inconclusive [cytotoxic, single point].

Question: With `CCCCCCCCCCCCCCCCCCCl` as the compound, how does the activity change, negative = cytotoxicity read?
Answer: Its activity change, negative = cytotoxicity is inactive: 2.37% [at 6.97 µM].

Question: For `CC(C)(C#N)c1cc(Cn2cncn2)cc(C(C)(C)C#N)c1`, which Potency is on record?
Answer: The Potency was “inactive”.

Question: For `Cc1ncc([N+](=O)[O-])n1CCO`, which Potency is on record?
Answer: Its Potency is inconclusive [rising, partial curve, poor fit].

Question: For `CC(C)(C)C(=O)Oc1ccc(S(=O)(=O)Nc2ccccc2C(=O)NCC(=O)O)cc1`, which “activity change, negative = cytotoxicity” value is on record?
Answer: Its value is inactive: 6.82% [at 35.3 µM].

Question: Which “activity change, negative = cytotoxicity” value does the source give for `CCCCC[Si](OCC)(OCC)OCC` here?
Answer: Its value is inactive: -19.6%.

Question: With `COc1ccc2c(c1)C(=O)N(CCc1ccc(S(=O)(=O)NC(=O)NC3CCCCC3)cc1)C(=O)C2(C)C` as the compound, how does the “activity change, negative = cytotoxicity” value read?
Answer: Its value is inactive: -6.18% [at 35.3 µM].

Question: Which Potency does the source give for `CCCCCCCC/C=C\CCCCCCCC(=O)OCCCC` here?
Answer: Its Potency is inconclusive [cytotoxic, single point].

Question: Which “activity change, negative = cytotoxicity” value does the source give for `CCOC(=O)c1cc(=O)c2c(OCC(COc3cccc4oc(C(=O)OCC)cc(=O)c34)OC(=O)[C@@H](N)CCCCN)cccc2o1` here?
Answer: Its value is inactive: 2.9% [at 35.3 µM].

Question: For `O=C(Nc1ccc([N+](=O)[O-])cc1)Nc1ccc([N+](=O)[O-])cc1` (tested in a mixture with another compound), which Potency is on record?
Answer: Its Potency is inconclusive [cytotoxic, full curve].

Question: For `CC(C)=CCCC(C)C=O` (centres undefined), which “activity change, negative = cytotoxicity” value is on record?
Answer: Its value is inactive: 5.37%.

Question: For `CC(C)OC(C)C`, which “activity change, negative = cytotoxicity” value is on record?
Answer: Its value is inactive: 22.8%.

Question: For `Nc1nc(CC(=O)O)cs1`, which Potency is on record?
Answer: The Potency was inconclusive [cytotoxic, single point].

Question: Which “activity change, negative = cytotoxicity” value does the source give for `CCOc1nc(F)cc2nc(S(=O)(=O)Nc3c(Cl)cccc3C(=O)OC)nn12` here?
Answer: Its value is inactive: 8.05%.

Question: Which Potency does the source give for `CC(=O)c1ccccc1N` here?
Answer: Its Potency is inconclusive [cytotoxic, single point].

Question: For `CN(C)c1ccc(CCO)cc1`, which Potency is on record?
Answer: The Potency was inconclusive [cytotoxic, full curve].

Test: qHTS RealTime-Glo MT Cell Viability Assay in HEK293 cells - 8 hour (AID 1224887); for activity change, negative = cytotoxicity: top concentration of the series differs between compounds
Details: RealTime-Glo luminescence; series mostly up to 76.8 µM; activity change, negative = cytotoxicity: at the top concentration
Method in brief: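 Tox21 screen in HEK293 using RealTime-Glo MT chemistry, with cells and reagent co-dispensed. Luminescence proportional to viable cell number was captured at intervals during 40 h compound exposure at 37 C.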

Question: For `Clc1ccc(Cn2c(CN3CCCC3)nc3ccccc32)cc1`, which Potency is on record?
Answer: Its Potency is inconclusive [cytotoxic, single point].

Question: With `OCc1c2ccccc2cc2ccccc12` as the compound, how does the Potency read?
Answer: The Potency was inconclusive [cytotoxic, single point].

Question: With `CCC(=O)O[C@]1(C(=O)COC)[C@@H](C)C[C@H]2[C@@H]3CCC4=CC(=O)C=C[C@]4(C)C3(F)[C@@H](O)C[C@@]21C` (some centres undefined) as the compound, how does the “activity change, negative = cytotoxicity” value read?
Answer: The value was inactive: 5.35% [at 35.3 µM].

Question: Which Potency does the source give for `C=CCSSCCC` here?
Answer: Its Potency is inconclusive [rising, single point].

Question: For `O=C(Cl)c1ccc(F)c(Cl)c1`, which Potency is on record?
Answer: Its Potency is inconclusive [rising, partial curve].

Question: For `CC(=O)Oc1cc(C(C)C)c(OCCN(C)C)cc1C`, which Potency is on record?
Answer: The Potency was inconclusive [cytotoxic, partial curve].

Question: Which “activity change, negative = cytotoxicity” value does the source give for `CC(C)(C)Cl` here?
Answer: Its value is inactive: 0.721%.

Question: For `Cc1c(-c2ccccc2)oc2c(C(=O)OCCN3CCCCC3)cccc2c1=O`, which Potency is on record?
Answer: The Potency was active: 19 µM.

Question: Which Potency does the source give for `CCCCCCCC/C=C\CCCCCCCC(=O)OCCCC` here?
Answer: The Potency was inconclusive [cytotoxic, single point].

Question: Which Potency does the source give for `CC(=O)c1ccccc1N` here?
Answer: Its Potency is inconclusive [cytotoxic, single point].
